The source of these data is PubChem BioAssay (NCI).

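96-well plates; 48 h exposure; 5 concentrations. Endpoints by linear interpolation between flanking doses. Not reached: highest tested concentration assigned. GI50 is the concentration that inhibits growth by half. At the TGI there is no net growth.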

This experiment has as its system NCI-H322M lung. Nature of the experiment: inhibition of tumour cell growth, NCI panel, 48 h.
As for `CN1CCN(Cc2ccc(C(=O)Nc3cccc(Nc4ccc5c(O)cccc5n4)c3)cc2C(F)(F)F)CC1`, the GI50 is 3.23 µM and the TGI came to 11.6 µM.
Turning to `CN1CCN(Cc2ccc(NC(=O)c3cncc(C#Cc4cnc5ccc(N[C@H]6CCOC6)nn45)c3)cc2C(F)(F)F)CC1`, the GI50 was 0.159 µM and the TGI came out at 0.627 µM.
On the same counts, the results for `COc1cccc(-c2ccc(/C=N/NC(=O)c3[nH]c4ccc(Br)cc4c3-c3ccccc3)s2)c1` are 5.02 µM and greater than 100 µM.
The like results for `Cn1cc(-c2cc3nc(-c4cn(C)c5ncc(Br)cc45)cc(N)n3n2)c2ccccc21` were, in that order, 10.4 µM and 45.1 µM.
